Source: PubChem BioAssay AID493005 (National Center for Advancing Translational Sciences (NCATS), 2010)
The campaign covered roughly 340,000 compounds. Fewer than 10 were called active. Inconclusive results, whose numbers are uncertain, are shown with a selection of clear calls. Calls come from the whole dose curve; as a rule, active = well fitted inhibition curve with a large enough effect in the main read-out, with a control signal flat (not every such curve was filed as active); inconclusive = small, poorly fitted or top-dose-only effect, or effect the other way, or a change in a side signal; inactive = no such curve, though single readings can be large or run the other way. Where the call is inconclusive, the potency comes from a doubtful curve fit. A note “side channel” means that the fit belongs to a control or component signal, not to the main read-out.

Target: Tumor susceptibility gene 101 protein (Homo sapiens) (UniProt Q99816)
Chain of UniProt Q99816 (Q99816 whole entry, looked up): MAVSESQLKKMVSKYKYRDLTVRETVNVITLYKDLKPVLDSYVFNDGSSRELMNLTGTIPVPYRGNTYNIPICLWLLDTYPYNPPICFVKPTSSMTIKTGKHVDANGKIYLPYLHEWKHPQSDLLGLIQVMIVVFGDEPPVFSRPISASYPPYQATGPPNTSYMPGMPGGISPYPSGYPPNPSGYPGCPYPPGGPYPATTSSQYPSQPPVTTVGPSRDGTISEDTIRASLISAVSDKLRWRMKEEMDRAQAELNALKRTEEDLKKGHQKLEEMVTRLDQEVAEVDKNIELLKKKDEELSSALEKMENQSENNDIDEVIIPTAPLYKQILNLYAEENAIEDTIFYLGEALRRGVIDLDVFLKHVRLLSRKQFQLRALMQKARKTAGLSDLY
Assay: qHTS Assay for Iinhibitors of HIV-1 Budding by Blocking the Interaction of PTAP/TSG101; for activity change, negative = inhibition: % of control where 0% means no effect
Settings: Fluorescence polarization, FITC-PTAP peptide / Tsg101 binding; activity change, negative = inhibition: at 115 µM (top of the series)
Summary of the method: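 Compounds were pin-transferred onto Tsg101 binding domain (10 uM final) in HEPES pH 7.5 buffer, then FITC-PTAP peptide was added at 50 nM final. After 20 min at RT, polarization reported peptide displacement across a qHTS concentration series.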
Potency is the fitted concentration of half-maximal effect; tags give direction and shape of the fitted curve or compound fluorescence and quenching.

Row | Compound | Potency | activity change, negative = inhibition
1 | NC(=O)c1c(Nc2nc3c(F)cccc3s2)sc2c1CCCC2 | inconclusive: 44.7 µM [fluorescent, side channel, partial curve, poor fit] | –
2 | Cc1cc(N2CCCC2)ccc1/C=C1\NC(=S)N(C)C1=O | inconclusive: 11.2 µM [fluorescent, side channel, full curve, poor fit] | –
3 | O=c1[nH]c2ccc(N=Cc3c(O)ccc4cc(Br)ccc34)cc2[nH]1 | inconclusive: 56.2 µM [fluorescent, side channel, partial curve, poor fit] | –
4 | Cc1ccccc1-n1c(SCc2c(C)noc2C)nnc1-c1cccnc1 | inconclusive: 56.2 µM [fluorescent, partial curve, poor fit] | –
5 | O=C1/C(=C\c2cc([N+](=O)[O-])ccc2O)SC(=S)N1Cc1ccc(Cl)cc1 | inconclusive: 14.1 µM [fluorescent, side channel, full curve, poor fit] | –
6 | Cc1ccc2nc(/C(C#N)=C/c3ccc(-c4ccccc4C(=O)O)o3)[nH]c2c1 | inconclusive: 50.1 µM [fluorescent, side channel, partial curve, poor fit] | –
7 | CCOC(=O)/C(C#N)=C\c1ccc(N2CCN(C/C=C/c3ccccc3)CC2)cc1 | inconclusive: 79.4 µM [fluorescent, side channel, partial curve, poor fit] | –
8 | O=C(Cc1cccc(NC(=O)C2CCCN(C(=O)c3ccccc3)C2)c1)Nc1ccc(C(=O)N2CCCCC2)cc1 (configuration not stated) | – | inactive: 0.453%
9 | COc1ccc(C(=O)/C=C/Nc2ccc([N+](=O)[O-])cc2C)c(OC)c1 | inconclusive: 56.2 µM [fluorescent, side channel, partial curve, poor fit] | –
10 | O=C(c1cnccn1)N1CCc2c([nH]c3ccccc23)C1c1cccc(Cl)c1 (configuration not stated) | – | inactive: 2.21%
11 | CCc1ccc(/C=C2\SC(=S)N(CCCC(=O)Nc3ccccn3)C2=O)cc1 | inconclusive: 56.2 µM [fluorescent, side channel, partial curve, poor fit] | –
12 | CC(C)Cn1c(O)c(N=NC(=O)c2cccc(S(=O)(=O)N3CCCCC3)c2)c2ccccc21 | – | inactive: -2.16%
13 | COc1ccc2nc3ccccc3nc2c1NC(=O)c1ccccc1Cl | inconclusive: 79.4 µM [fluorescent, side channel, partial curve] | –
14 | C=CCn1c(=O)c2ccc(C(=O)NCc3ccccc3)cc2n(Cc2cccc(Cl)c2)c1=O | – | inactive: -1.09%
15 | O=C(N=c1ccn(-c2nc3ccccc3nc2NS(=O)(=O)c2ccccc2)cc1)c1cccs1 | inconclusive: 50.1 µM [fluorescent, side channel, partial curve, poor fit] | –
16 | O=C(Cc1ccccc1)N/N=C/c1ccc(-c2ccc([N+](=O)[O-])cc2)o1 | inconclusive: 79.4 µM [fluorescent, side channel, single point] | –
17 | CCn1c(CNC(=O)c2cc(OC)c(OC)c(OC)c2)cc2ccccc21 | – | inactive: -3.04%
18 | CN1CCS/C1=C/C=C1/SC(=S)N(Cc2ccccc2)C1=O | inconclusive: 12.6 µM [fluorescent, side channel, full curve, poor fit] | –
19 | CC(CN1CCCC1)OC(=O)c1ccc(Cl)cc1Cl (configuration not stated) | – | inactive: -7.34%

Row | Compound | Potency | activity change, negative = inhibition
20 | COc1ccc(-c2nnn(Cc3ccccc3F)n2)cc1 | – | inactive: -2.13%
21 | COc1ccc(C2c3ccc4ccccc4c3Oc3ncn(CCO)c(=N)c32)cc1OC (configuration not stated) | – | inactive: -2.82%
22 | Brc1ccsc1/C=N/Nc1ccccc1 | – | inactive: -2.5%
23 | CCCCn1c(SCC(=O)c2cc(OC)ccc2OC)nc2cc(S(N)(=O)=O)ccc21 | inconclusive: 79.4 µM [falling, partial curve, poor fit] | –
24 | Brc1ccc(-c2nn3c(-c4ccccn4)nnc3s2)o1 | – | inactive: -4.95%
25 | COc1ccc(/C=C2/SC(c3ccc(C)cc3)=NC2=O)cc1OC | inconclusive: 44.7 µM [fluorescent, side channel, partial curve, poor fit] | –
26 | N#CC1CC(c2ccc([N+](=O)[O-])cc2)=NN1c1ccc([N+](=O)[O-])cc1 (configuration not stated) | inconclusive: 79.4 µM [fluorescent, side channel, partial curve, poor fit] | –
27 | CN1CCN(C2=CC3=CC(=C(C#N)C#N)CCC3CC2)CC1 (configuration not stated) | inconclusive: 44.7 µM [fluorescent, side channel, partial curve] | –
28 | O=C(O)c1ccccc1/C=N/Nc1ccc(S(=O)(=O)N2CCOCC2)cc1[N+](=O)[O-] | inconclusive: 100 µM [fluorescent, partial curve, poor fit] | –
29 | CCN1/C(=C/C=C/c2oc3ccc(-c4ccccc4)cc3[n+]2CC)Oc2ccc(-c3ccccc3)cc21 | inconclusive: 2.82 µM [fluorescent, side channel, full curve, poor fit] | –
30 | COc1ccc(-c2onc3ccc(C(C)=O)cc23)cc1 | inconclusive: 31.6 µM [fluorescent, side channel, partial curve, poor fit] | –
31 | Cc1nc(C(=O)O)nn1-c1ccc([N+](=O)[O-])cc1 | – | inactive: -0.148%
32 | COc1ccc(S(=O)(=O)NCCN2CCOCC2)c2ccccc12 | – | inconclusive: 43.2% [activator]
33 | COc1ccc(/C=c2\s/c(=C/C(=O)c3ccc(C)cc3)[nH]c2=O)cc1OC | inconclusive: 56.2 µM [fluorescent, side channel, partial curve, poor fit] | –
34 | Cc1ccc(-c2csc3nc(-c4ccncc4)[nH]c(=O)c23)cc1 | inconclusive: 44.7 µM [fluorescent, side channel, partial curve, poor fit] | –
35 | Cn1c(-c2ccc(Cl)cc2)ccc(C#N)c1=O | – | inactive: -3.78%
36 | O=C1CCCC2=C1Sc1ccccc1N2 | inconclusive: 79.4 µM [fluorescent, side channel, partial curve, poor fit] | –
37 | COCCN(CCOC)Cc1c(O)ccc2c1O/C(=C\c1ccc(C)o1)C2=O | inconclusive: 50.1 µM [fluorescent, side channel, partial curve, poor fit] | –
